The supplement of paper PMC11417369
± gives the standard deviation of the averaged measurements. This is one part of the list.

The sequences below were run on PfAP2-LT AP2 domain (GST-tagged) (assay: gcPBM binding intensity (ln(normalized median fluorescence intensity)); higher = stronger DNA binding).
Method in brief: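 The binding buffer was 1× PBS containing 1% milk, 0.2 mg/ml BSA, 0.5% salmon testes DNA and 0.03% Triton X-100. In it, GST-tagged P. falciparum DNA-binding domains expressed in E. coli were applied for 1 h to an Agilent 4 × 180k array of primer-extended double-stranded 36-bp intergenic genomic probes plus negative controls. Binding intensity, read with Alexa488 anti-GST antibody and a 488 nm scan, is the highest Masliner-normalised natural-log median intensity across replicate spots of either probe orientation.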

Sequence | gcPBM binding intensity (ln)
ATAGTATCTGGTAGCTGTACGAGTCGTAGAGAGTAG [XGTACX_site2546] | 9.01 ± 0.43
TCGTGTTAAACTTTTACACACAAACTTGCAATAATT [CACACA_site7745] | 9.09 ± 0.42
TAATAACTACAAAAAAAAAAGAAAAATAGAAAAAGG [CACACA_negctrl_site1102] | 8.62 ± 0.64
TTTGTTTAAATTAAATGTACATAAAGAATAATATAT [XGTACX_site5093] | 8.49 ± 0.3
TGCTTTATTATTTATTGTACATGTAAAATGAGAGAG [XGTACX_site2288] | 8.52 ± 0.38
AGAAGGTAAATAATTTACCCATATATATAAATATAT [GTGCAC_negctrl_site631] | 8.62 ± 0.49
AATTATATGAAATAAACACACATATGTAATATTACA [CACACA_site1928] | 8.9 ± 0.41
ATTGAATATGGATATGTGCACATATGTATATAAGTA | 9.21 ± 0.47
ATATATATACTGTGTACACACATATGTATTTATATA [CACACA_site4600] | 9.23 ± 0.38
AAAACATTGTTGAACTGTTTTATTTATAAATATAAG [XGTACX_negctrl_site393] | 8.43 ± 0.45
ATTTCTACTAAAAATACACACGATGATACAACGAAG [CACACA_site1755] | 8.87 ± 0.39
TATATATATATATAATGTACATATATATAATATACA [XGTACX_site1552] | 8.76 ± 0.22
GTCTTAAAAATTAAAACACACGTTCACTTTCATATT [CACACA_site5803] | 8.96 ± 0.55
ATAATGTAAAAGTAAACACACACATATATATATACA [CACACA_site8793] | 9.58 ± 0.4
AATTAATAACAAAATAAACACACATATATAAATACA [CACACA_site8456] | 9.03 ± 0.38
TTTCACTTTTTCCAAAGTACATATATAAAAATTAAT [XGTACX_site6947] | 8.21 ± 0.3
TTTTAATAAATATACACACACAAAAAAAAAAAAAAA [CACACA_site3971] | 8.93 ± 0.44
AATAAAAAGACATTCACACATATATATTATTTATAT [CACACA_site5936] | 8.86 ± 0.39
AATATATAGAAACACACACACAAAAAAAAAAAAAAA [CACACA_site1326] | 9.27 ± 0.47

Sequence | gcPBM binding intensity (ln)
GACCAATTCAAATATGCACACAAATTTGAAAACGAT [CACACA_site9202] | 9.31 ± 0.42
AGATTATAAAATTCTACACACATATATACATATATA [CACACA_site3485] | 8.91 ± 0.36
ATATAAAAAAAAAAAAGTACACATAAACAAATGCAT [XGTACX_site4241] | 8.91 ± 0.49
ATATGTAGAAGTAATGCACACATATGTATATATATA [CACACA_site8796] | 9.34 ± 0.33
TTAAAATATAATATTCGTACTTATTCAAAAGAAAAA [XGTACX_site2122] | 8.13 ± 0.51
CATAATACAGATAACACACACAATTATACATAAAAT [CACACA_site5742] | 9.59 ± 0.39
TATATTTAGATATATACACACATTAGCATTTTCATA [CACACA_site6902] | 8.86 ± 0.4
CTAATGATCATATATACACACACACTAATAAAAAAA [CACACA_site9329] | 9.64 ± 0.14
AAAGAATTTGCATATACACACAAAAAGATATATACA [CACACA_site6318] | 9.04 ± 0.44
AACGAAAACACTACGTGTACCAAACGTCCTACTAAC [XGTACX_site4915] | 9.02 ± 0.42
CATACATATACATACAGTACATATTTTTTGTCAATT [XGTACX_site7357] | 8.89 ± 0.42
GTATATATTTTTATTTAATAATTTGTTTATTTATTC [CACACA_negctrl_site647] | 8.65 ± 0.54
TTATATGGCTCCATTTGTACGCATCCATGTTTTTAT [XGTACX_site6590] | 9.2 ± 0.39
GTATGTATATATATATGTACATACTGTTTATCGTTA [XGTACX_site6168] | 8.9 ± 0.44
AAAAAAAAAAAAAAAGCACACATCATATTATAATTC [CACACA_site3355] | 8.88 ± 0.42
AGTTATTAAAAATGTGCATGCAATGGTTTCTCTTAA [TGCATGCA_site634] | 9.04 ± 0.35
AAAAAAACATAACAAAATGAAACAAAACAAAAAGAA [GTGCAC_negctrl_site577] | 8.99 ± 0.52
ATTTATAATGATTTTTTTAGTAATCTTGTTATTTTT [XGTACX_negctrl_site373] | 8.63 ± 0.52
TCTTTTTTTTCTTTTTTTTTATTTAAATATCAAGTA [CACACA_negctrl_site1354] | 8.26 ± 0.55

Sequence | gcPBM binding intensity (ln)
AGGAGGTCAGTTCACAGTACCCAGAAACTCTACGAG [XGTACX_site2006] | 8.62 ± 0.56
TCATATTATAATGTGAGTACATATAATAAATAAGTT [XGTACX_site2470] | 8.82 ± 0.49
ATGTTTGTCTATAGCTGTACCTATTTATAAAACGTA [XGTACX_site7157] | 8.79 ± 0.43
GTAAAAATTTTAAATACATGCAAGCGATTAATATGA [TGCATGCA_site80] | 8.71 ± 0.39
TTAATATGATATATATATATATATATATATATATAT [CACACA_negctrl_site683] | 9.585 ± 0.092
ATATTTCTGTCAAGCACACATAATATTAAAATATGT [CACACA_site4330] | 9.15 ± 0.24
ATTTAGAAAAATAAAACACACATATAGATGTAAATA [CACACA_site7853] | 8.81 ± 0.52
ACAGAAAAAAAACACACACACATAATATACATACAT [CACACA_site1932] | 9.82 ± 0.19
TATACATATATAAATGCATGTTGATATTAATAGTTA [TGCATGCA_site639] | 8.71 ± 0.33
AGGAGACTTAAAAAAAGTACAAAAAAAAAAAAAAGC [XGTACX_site1576] | 9.06 ± 0.67
TATTTTTTTTTCTTTTTATATATAATAATCTTCATT [GTGCAC_negctrl_site80] | 8.47 ± 0.61
GTATATATGTATATATGTACATATATACATTTTGTT [XGTACX_site7320] | 9.04 ± 0.2
CGTTAAAGGGAATGTATACACACGTTTCTCTATGTT [CACACA_site1198] | 9.16 ± 0.32
TTAAATAATATTAAATGTACATATTATTATGATATA [XGTACX_site6189] | 8.44 ± 0.41
TTATAACAACTGGAATGATTAACAATAAATATTAAA [CACACA_negctrl_site1723] | 8.53 ± 0.44
TATATATTTAACAATCGTACATATTTACAAATATAA [XGTACX_site2131] | 8.32 ± 0.4
CCTGTAAATAAATATAAATACATATTTCTAATATAT [GTGCAC_negctrl_site21] | 8.54 ± 0.41
AAACATAAGAGACACACACACATATATAAATAAATA [CACACA_site7674] | 9.79 ± 0.38
